# This is one part of the list. Sequences were assembled here from the parent chain. Values near 0.05 are background.
# B1: TEV protease; numbered along this chain (parent)
# chain: MGESLFKGPRDYNPISSSICHLTNESDGHTTSLYGIGFGPFIITNKHLFRRNNGTLVVQSLHGVFKVKDTTTLQQHLVDGRDMIIIRMPKDFPPFPQKLKFREPQREERICLVTTNFQTKSMSSMVSDTSCTFPSGDGIFWKHWIQTKDGQCGSPLVSTRDGFIVGIHSASNFTNTNNYFTSVPKNFMELLTNQEAQQWVSGWRLNADSVLWGGHKVFMVKPEEPFQPVKEATQL
# Variants of: B1
# Test: raw area under fraction-flipped curve 0-4 h after induction (AUC4h, not background-subtracted), DNA-recorder readout of cleavage of the substrate (dimensionless); higher = more cleavage of the substrate by the protease variant
# Conditions: temperature: 34 °C; time window: 0-4 h after rhamnose induction
# 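Further: Bxb1 expression induced with 0.2% (w/v) L-rhamnose at OD600 near 0.5, cultures sampled hourly, flipped fraction per protease–substrate barcode pair counted by paired-end Illumina sequencing.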
Variant,area with substrate ENLYFAS,area with substrate ENLYFCS,area with substrate ENLYFDS,area with substrate ENLYFFS,area with substrate ENLYFHS,area with substrate ENLYFIS,area with substrate ENLYFKS,area with substrate ENLYFMS,area with substrate ENLYFNS,area with substrate ENLYFPS,area with substrate ENLYFSS,area with substrate ENLYFTS,area with substrate ENLYFWS,area with substrate ENLYFYS,area with substrate ENLYFES,area with substrate ENLYFRS,area with substrate ENLYFVS,area with substrate ENLYFGS,area with substrate ENLYFLS
V210L,0.0722,0.0412,0.0695,0.0645,0.0611,0.067,0.0634,0.0541,0.05,0.0604,0.0528,0.0641,0.112,0.0609,,,,,
V210Q,0.0535,,0.0581,0.0659,0.062,0.0578,0.0722,0.065,0.0643,0.0476,0.0605,0.0414,0.0569,,0.0544,0.0824,0.0462,,
L56E,,0.0471,0.0424,0.0474,0.0428,0.0484,0.0464,0.0581,0.0442,0.0507,,,,0.0204,0.046,0.0531,,0.0479,
P225L,0.0486,0.0616,,0.0631,0.0495,0.061,,0.0675,0.0638,0.0502,0.0507,0.0657,0.0525,,0.0729,0.058,,,
P225A,0.0516,0.0638,,0.06,,0.0536,0.0391,0.0552,,,,0.0576,0.056,,0.0671,0.0661,0.0629,,
T31K,,0.0598,0.0483,0.0636,,0.0489,,0.0552,0.0437,0.0472,,0.056,0.0684,0.0739,0.0701,0.0567,0.0539,0.0586,0.0654
N206S,0.0609,0.0491,,0.0685,0.0534,0.0532,,0.0576,0.054,0.0591,,0.0612,,,0.0531,0.0692,0.0576,,
I36Q,,0.0424,0.0481,0.0628,0.0422,0.0643,0.0534,0.0402,0.0727,0.0506,0.0556,,,,0.0618,0.0512,,0.0308,
T30Q,,0.0618,,0.0521,0.0634,0.05,0.0578,0.0723,0.0626,0.0447,,0.0714,0.0647,0.0603,0.056,0.0451,0.0787,0.0611,0.068
P228Q,0.0652,,,0.0569,0.0655,0.0565,0.0623,0.0661,0.0639,0.053,,0.0659,,,0.076,0.0643,0.0615,0.0617,
P228H,0.0668,,0.0632,0.0732,0.0534,0.0523,0.0587,0.0631,,0.0609,0.0571,0.0533,0.0531,,0.0695,0.0503,0.058,0.0618,
P228V,0.059,0.0373,0.063,0.0662,,0.0575,0.0562,0.0607,0.068,,,0.0519,0.0549,0.0639,,0.055,,0.0385,0.044
G214Y,0.0511,,,,,0.0623,,0.0563,0.0441,0.0537,,,,,,0.0545,,,
G63H,,0.0571,0.0452,,0.0515,0.0537,,,,0.0628,0.0534,0.0508,,,0.0574,,0.0485,0.0605,
V67C,,0.0424,0.0563,0.0608,0.0571,0.0603,0.0692,0.0692,0.0654,0.0585,,0.0619,,0.0586,0.0814,0.0601,,,
D27L,,0.0607,0.0498,0.0665,0.0424,0.0588,0.0525,0.0611,0.057,0.0566,0.0596,0.0475,0.0735,0.0514,0.0539,0.0812,0.0484,0.0624,0.0775
V220C,0.0335,0.0837,0.0568,0.0538,,0.0658,0.0588,0.0771,,0.0379,0.0578,0.0569,0.0564,,0.0754,0.0607,0.0523,,0.057
V220D,0.0441,,,0.0599,0.0599,0.05,,0.0715,0.0734,0.0704,0.0564,0.057,0.06,,0.0494,,0.0502,,
V220N,0.0512,0.0531,,0.0676,,0.047,,0.069,,0.0495,,,,0.0603,,0.0565,,0.0865,0.0537
T233R,0.0711,0.0719,0.055,0.0649,0.0527,0.0606,,0.064,,0.0577,,0.0458,0.0575,0.064,0.0719,,0.0538,,0.0646
T233N,0.045,,,0.0724,0.0679,0.0566,0.0672,0.0872,0.062,0.0485,,0.0514,,0.052,0.071,0.0599,0.0488,0.0662,0.0561
Q227S,0.0587,0.0532,,0.0579,,0.0584,,0.0601,,0.0655,0.0522,0.078,0.0612,0.0581,0.0615,0.0671,,,
N45F,,0.0517,0.0581,0.0721,0.0604,0.0624,,0.0601,0.0651,0.0655,,0.0566,0.0605,0.0508,0.0662,0.0625,0.0707,0.0537,0.0641
N45M,,0.0547,0.0646,0.0702,,0.0587,0.0476,0.0718,0.0428,0.0673,0.0572,,0.053,0.07,0.0567,0.0495,0.0759,,0.0642
M219G,0.0599,0.0315,0.0567,0.0648,0.0509,0.0573,0.0655,0.0582,0.0588,0.0705,,0.0566,0.0578,,0.0558,0.056,,0.0592,
M219I,0.0615,,,0.0582,,0.0454,0.0662,0.0627,0.0628,0.0514,0.0521,0.0593,0.0574,,0.0836,0.0681,,,0.0525

# Reference: the supplement of paper PMC12217912
